The list shows a part of the results. These are noisy estimates, calculated here from bound and input reads.
biological target: T1, Pho4 (S. cerevisiae) (UniProt P07270); experiment: relative binding free energy (BET-seq); higher = weaker binding; settings: reference: library average
T1 sequence: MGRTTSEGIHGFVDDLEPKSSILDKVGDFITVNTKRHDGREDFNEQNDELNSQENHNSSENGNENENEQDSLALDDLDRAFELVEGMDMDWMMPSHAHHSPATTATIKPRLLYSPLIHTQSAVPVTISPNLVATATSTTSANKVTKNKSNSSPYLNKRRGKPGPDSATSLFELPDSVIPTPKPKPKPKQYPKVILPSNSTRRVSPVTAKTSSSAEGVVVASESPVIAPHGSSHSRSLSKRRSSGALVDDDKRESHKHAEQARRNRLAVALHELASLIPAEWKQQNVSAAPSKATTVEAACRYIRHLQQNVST

Sequence	relative binding free energy [kcal/mol]
TAAATCACGTGTTTTA	0.1
TGTAGCACGTGATATA	0.08
CGAATCACGTGTTGTG	0.01
GGTAACACGTGGAGGT	0.11
CTTATCACGTGGTATA	0.07
GATGTCACGTGAACGG	0.45
GGCATCACGTGAAGTG	0.39
GTTTGCACGTGCACTT	0.1
GTGGGCACGTGATATA	-0.05
TGTTGCACGTGTAGAG	0.21
CGGGGCACGTGGTGCG	-0.29
AGGGTCACGTGTTGCC	0.14
GTTTACACGTGGTGCA	0.02
GAAGTCACGTGACGGT	0.2
TTGAGCACGTGTGGAC	-0.03
ATTGGCACGTGGGGTC	-0.28
TGTAGCACGTGTTTGC	-0.02
CGACGCACGTGTGGTG	-0.07
GAGTTCACGTGAGATG	0.51
TTGGCCACGTGATTGT	0.07
ATTAGCACGTGGGTCG	-0.45
TGGGTCACGTGTGCTG	0.12
ATGTACACGTGAGGCG	0.41

Sequence	relative binding free energy [kcal/mol]
TAAGGCACGTGACTGT	-0.01
TGGCACACGTGTATGG	0.01
ATGCGCACGTGGGTCT	-0.33
GCGTTCACGTGGTATG	0.33
AGACGCACGTGTTGTG	-0.12
GGATTCACGTGGGAGG	0.01
GATAGCACGTGGGAGT	-0.16
GCGGGCACGTGGCGTG	-0.19
GGCGGCACGTGCTGGC	-0.09
TGTTGCACGTGCGAAG	-0.05
TTCGACACGTGATGTG	0.01
CTTTGCACGTGGACTG	-0.01
CGTATCACGTGGGTAG	0.04
TTAGGCACGTGCAATT	-0.11
TTCGGCACGTGGGGGA	-0.28
AATGACACGTGAGTTT	0.25
GTTGTCACGTGCTATA	0.17
TTGTCCACGTGTAATT	0.1
CGTTCCACGTGTAGGG	0.06
TGTCGCACGTGTTGCG	-0.07
ATAGTCACGTGTTTCA	0.14
TGGTTCACGTGTTTAT	0.38
GGTGCCACGTGGCGTG	-0.07

Sequence	relative binding free energy [kcal/mol]
TTGGGCACGTGGGTAA	-0.19
ATATACACGTGATTTA	0.19
GCTGGCACGTGTGTAA	-0.11
GGGATCACGTGAAGCT	0.5
GCTGTCACGTGATAGG	0.24
ATAAACACGTGAGTGT	0.22
TAGATCACGTGGGCGA	0
CGTTTCACGTGTAGGA	0.2
GTAGGCACGTGTCGGG	-0.14
GGTGACACGTGTGGTG	0.03
TTGTGCACGTGTCTTG	0.13
TTTAGCACGTGTATGA	-0.07
TCTGTCACGTGCTGTG	0
GGTAACACGTGATTAG	0.15
TTGGACACGTGCAAGG	0.21
GTGAACACGTGAGGTG	0.19
ATTTTCACGTGTGGTG	0.26
GTGTTCACGTGAATTC	0.43
TGTGTCACGTGAGGGA	0.39
GGGAACACGTGAGCGG	0.3
GTGGTCACGTGCGAGG	0.08
TGGTTCACGTGTCGAA	0.18
TGAGGCACGTGAGCGG	0.05

Sequence	relative binding free energy [kcal/mol]
ATCGTCACGTGTTGAT	0.15
TATGGCACGTGCAGTG	-0.11
GCAATCACGTGGTGGG	0.04
ATCTACACGTGTTGGG	0.03
TCTCTCACGTGTGGTT	0.24
ATTTTCACGTGGCTGG	0.22
CATGTCACGTGGGTAT	-0.09
GTAAGCACGTGGGGTC	-0.16
GTCTTCACGTGCGTTG	0.17
CATAGCACGTGAAGGT	0.23
GTTCGCACGTGCAGTG	0.01
AGGTACACGTGTGGTT	0.09
GGTTACACGTGCGCGG	-0.02
CGTGGCACGTGAGGCT	0.1
TAAGGCACGTGAATTA	0.19
AGATGCACGTGGAAGT	-0.03
ATTCTCACGTGTATGA	0.27
GTAGACACGTGTAGAG	0.03
TTGCTCACGTGTGTGC	0.13
AAGTGCACGTGGGTGA	-0.16
ATAGCCACGTGGGTGT	-0.19
ATGCTCACGTGGCGGT	0.12
GATATCACGTGGATGT	0.11

Sequence	relative binding free energy [kcal/mol]
AGTTGCACGTGTTTTA	0.01
TTTATCACGTGCGGGA	0.1
AGTGGCACGTGTCGTA	-0.12
ATGGTCACGTGATGGC	0.13
CGGCTCACGTGAGGTT	0.43
CGGGTCACGTGGTGTC	0.05
TAAATCACGTGGGTGA	0.06
CATGTCACGTGTATTT	0.06
CTGTACACGTGTTATG	0.05
TGTAGCACGTGTGGAT	-0.05
CTGGGCACGTGTTAAG	-0.15
ATAGCCACGTGTTTGA	0.01
GTTGTCACGTGGGGCA	-0.01
TGGGACACGTGGTGCA	-0.08
GGTCGCACGTGGTGAA	-0.15
GCAGGCACGTGGTAAG	-0.06
CGGGGCACGTGAAGGA	0.12
GATGACACGTGGCGAT	0.09
GGATGCACGTGGCGGG	-0.06
TATGTCACGTGAGACA	0.39
TAACTCACGTGTTCGT	0.39
TGATTCACGTGTACGA	0.38
TGGTTCACGTGGAAAG	0.43

— the BET-seq Pho4 binding data (Le et al. 2018)
